# According to publication PMC4336329 (PLoS ONE, 2015):
# In all, about 310,000 compounds went through this assay and about 14,000 (4.5%) showed an effect of 50% or more. Effects have a minus sign here. The list shows a part of the results.
# Molecular target: human ether-à-go-go-related gene (hERG) potassium channel (human, UniProt Q12809)
# Test: primary screen, population patch clamp on CHO cells stably expressing hERG
# 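Also: peak tail current of the secondary pulse compared with the same well before compound.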
# Sequence of human ether-à-go-go-related gene (hERG) potassium channel (Q12809 whole entry, looked up): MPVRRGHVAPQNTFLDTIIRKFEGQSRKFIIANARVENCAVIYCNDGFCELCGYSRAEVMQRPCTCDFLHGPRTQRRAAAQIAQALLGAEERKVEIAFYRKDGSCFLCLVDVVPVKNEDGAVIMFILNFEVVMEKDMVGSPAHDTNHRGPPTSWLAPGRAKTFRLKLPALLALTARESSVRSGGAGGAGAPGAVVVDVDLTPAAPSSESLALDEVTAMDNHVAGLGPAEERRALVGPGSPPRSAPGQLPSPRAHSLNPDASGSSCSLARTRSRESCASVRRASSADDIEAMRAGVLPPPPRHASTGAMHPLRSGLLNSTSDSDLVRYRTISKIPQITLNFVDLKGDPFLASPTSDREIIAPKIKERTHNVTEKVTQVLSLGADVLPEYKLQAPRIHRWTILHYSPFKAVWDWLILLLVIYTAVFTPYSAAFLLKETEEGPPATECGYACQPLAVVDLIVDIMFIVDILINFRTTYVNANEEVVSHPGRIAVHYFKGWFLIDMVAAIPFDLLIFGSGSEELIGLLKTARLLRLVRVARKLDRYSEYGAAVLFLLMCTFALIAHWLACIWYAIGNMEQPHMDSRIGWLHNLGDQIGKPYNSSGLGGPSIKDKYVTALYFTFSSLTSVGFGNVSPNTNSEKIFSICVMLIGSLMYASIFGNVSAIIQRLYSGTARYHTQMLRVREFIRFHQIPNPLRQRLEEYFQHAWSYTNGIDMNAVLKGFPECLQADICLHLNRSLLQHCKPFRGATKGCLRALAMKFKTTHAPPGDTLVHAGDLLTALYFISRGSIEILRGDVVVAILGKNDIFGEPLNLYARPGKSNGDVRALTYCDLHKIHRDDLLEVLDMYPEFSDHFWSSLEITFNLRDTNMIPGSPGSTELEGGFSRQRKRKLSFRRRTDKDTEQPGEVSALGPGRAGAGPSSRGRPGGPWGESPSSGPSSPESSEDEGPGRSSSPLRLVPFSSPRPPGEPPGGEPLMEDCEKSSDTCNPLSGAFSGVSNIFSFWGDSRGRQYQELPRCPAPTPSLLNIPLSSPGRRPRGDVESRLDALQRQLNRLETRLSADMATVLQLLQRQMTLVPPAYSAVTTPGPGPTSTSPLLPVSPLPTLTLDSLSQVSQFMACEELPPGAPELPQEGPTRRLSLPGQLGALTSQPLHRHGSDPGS
row,Compound,"hERG current change (%, negative = inhibition) at 10uM [%]"
1,Nc1nnc(-c2cccnc2)s1,-2.17
2,N#Cc1nc(-c2ccc(F)cc2)oc1N1CCCCC1,8.29
3,Cc1cc(/C=C2\NC(=O)NC2=O)c(C)n1-c1ccc(N2CCOCC2)cc1,3.46
4,O=C(Nc1cccc2ccccc12)/C(=C/c1cccc([N+](=O)[O-])c1)NC(=O)c1cccs1,-67.7
5,CCOC(CNC(=O)C1CCN(S(=O)(=O)c2ccc3nc4c(c(C(=O)O)c3c2)CCCCC4)CC1)OCC,16.2
6,N#CCCN(C(=O)COC(=O)c1ccc2ccccc2n1)c1ccccc1,12.1
7,O=C(O)CC1c2ccccc2S(=O)(=O)N1Cc1ccccc1 (centres unmarked),9.1
8,Cc1cccc(C(=O)OC(C)CN2CCN(C)CC2)c1.Cl (centres unmarked),-23.3
9,O=C1CCc2cc(S(=O)(=O)N3CCC(C(=O)NCCC4=CCCCC4)CC3)ccc2N1,6.45
10,Cc1onc(-c2c(Cl)cccc2Cl)c1C(=O)c1ccc(F)cc1,6.04
11,CCCCNCc1cc(Cl)c(OCCC)c(OCC)c1.Cl,-19.9
12,COc1cccc(CNc2nc(-c3cccnc3)nc3ccccc23)c1,-15.6
13,COc1ccccc1NC(=O)C1=C(C)Nc2nnnn2C1c1ccncc1 (centres unmarked),-12.4
14,CCc1nc2ccc(C(=O)N3CCN(CC)CC3)cc2nc1CC,24.1
15,CN(C)C(CNC(=O)c1ccc2nc[nH]c2c1)c1ccccc1 (centres unmarked),16.9
16,Cc1cc(OCC(=O)c2ccc(Br)cc2)ccc1N1C(=O)CCC1=O,7.76
17,CC1CN(S(=O)(=O)c2cn(C)c(=O)n(C)c2=O)CC(C)O1 (centres unmarked),8.91
18,Cc1cc(Nc2ccc(C)c(Cl)c2)nc(N2CCOCC2)n1,-8.43
19,CCC(=O)Nc1nnc(SCC(=O)Nc2ccc(F)cc2)s1,-21.3
20,CC(C)(C)c1ccc(C(=O)NNC(=S)NCc2ccco2)cc1,9.53
21,CCn1c(SCc2nc3ccccc3s2)nnc1-c1ccccc1,-11
22,CCN(Cc1ccccc1)C(=O)CCS(=O)(=O)c1cc2c(cc1Cl)NC(=O)CO2,-50.7
23,COc1cc(NC(=O)CSc2ncccc2C(=O)OC(C)C)cc(OC)c1,-8.73

row,Compound,"hERG current change (%, negative = inhibition) at 10uM [%]"
1,COc1ccc(-c2nc(NC(=O)CCNC(=O)c3ccco3)sc2C)cc1,-11.1
2,COc1cc(/C=C/c2nc3ccccc3c(=O)n2-c2cccc(O)c2)ccc1O,-12.3
3,CCc1c(C(=O)c2ccc(Cl)cc2)oc2c(C)c3oc(=O)cc(C)c3cc12,-0.731
4,CN(C)S(=O)(=O)Nc1cc(Cl)cc(Cl)c1,-0.782
5,O=C(O)c1cccc(N/C(=N\S(=O)(=O)c2ccccc2)c2ccccc2)c1,-1.41
6,COc1ccc(NC(=O)CN2C(=O)COc3ccc(C)cc32)c(OC)c1,20.2
7,CN(Cc1cccc(C(F)(F)F)c1)Cc1nc(-c2cnccn2)no1,5.97
8,COC(=O)[C@H](Cc1ccccc1)NC(=O)N1CC(C)OC(C)C1 (some centres unmarked),-2.77
9,C/C(=N\NC(=O)CNC(=O)c1cccc(F)c1)c1ccc2ccccc2c1,-24.4
10,CCCCNC(=O)c1ccccc1NC(=O)C1=C(C)OCCS1,-4.94
11,CC(C)NC(=O)CSc1nc(-c2cccs2)cc(-c2ccccc2)c1C#N,8.14
12,CC(C)C1Oc2ccccc2N(CC(=O)N2CCOCC2)C1=O (centres unmarked),12
13,CCCc1cc(=O)oc2cc(C)cc(OCC(=O)NC3CC3)c12,-5.57
14,O=C(/C=C/c1ccc(Br)cc1)N1CCN(c2cccc(C(F)(F)F)c2)CC1,-8.52
15,CCOc1ccc(S(=O)(=O)Nc2ccc(C(=O)NCC(c3ccco3)N(C)C)cc2)cc1 (centres unmarked),-19.3
16,COc1ccc(N(C(C)C(=O)NC2CCCCCC2)S(C)(=O)=O)cc1 (centres unmarked),-4.43
17,Cc1cccc(-c2nnc(SCC(=O)N3c4ccccc4CCc4ccccc43)n2C)c1,-25.8
18,CCOC(=O)C(C)n1cnc2c(nnn2-c2ccc(F)cc2)c1=O (centres unmarked),-9.26
19,Cc1cc(C)cc(OCCCC(=O)O)c1,17.2
20,Clc1nnc(N/N=C/c2ccccc2)c2ccccc12,-7.44
21,CC(=O)c1cccc(NC(=O)CN(c2cccc(F)c2)S(C)(=O)=O)c1,-5.36
22,CN(C)CCN(Cc1cc2cc3c(cc2[nH]c1=O)OCCO3)C(=S)NCC1CCCO1 (centres unmarked),23
23,COc1cc([N+](=O)[O-])ccc1NC(=O)CN(C)C,-15.9

row,Compound,"hERG current change (%, negative = inhibition) at 10uM [%]"
1,COc1cc(OC)nc(NC(=O)C(C)C)n1,11.4
2,Cc1ccc(C(=O)OC2CCN(c3ccc([N+](=O)[O-])cc3)CC2)cc1,-1.78
3,Cc1c(O)cc2c(c1O)C(=O)CC(c1ccc(O)cc1)O2 (centres unmarked),1.64
4,CCOc1ccccc1/C=N/NC(=O)C[n+]1ccccc1.[Cl-],1.63
5,CCN(CC)C(=O)Cn1cc(C(=O)C(=O)N2CCN(C)CC2)c2ccccc21,21.1
6,CNC(=O)C1CC(=O)N(c2ccc(OCC(=O)Nc3ccc(OC)cc3)cc2)C1 (centres unmarked),8.32
7,CCc1ccc(C2=NN(c3ccc(S(N)(=O)=O)cc3)C(c3ccc(F)cc3)C2)cc1 (centres unmarked),11
8,COc1cccc(C(=O)NC(C)CCc2ccccc2)c1 (centres unmarked),-3.07
9,O=C(CSc1nnc(-c2cccnc2)s1)Nc1cccc(C(=O)O)c1,2.24
10,C=C(C)C(=O)Nc1cccc(C2=NOC3(C2)C[C@H](C(N)=O)N(C(=O)c2ccccc2C(=O)c2ccccc2)C3)c1 (some centres unmarked),-9.31
11,CCSc1nnc(NC(=O)CN(C)S(=O)(=O)c2ccc(F)cc2)s1,-26.3
12,CN1C(C(=O)NCc2ccc(OC(F)(F)F)cc2)CC2Cn3c(nc4cc5ccccc5cc43)C21 (centres unmarked),-69.4
13,CSc1ncccc1C(=O)OCC(=O)c1ccccc1Br,13.5
14,Cc1cc2ncn(C(=O)N3CCCCCC3)c2cc1C,3.41
15,Cc1ccccc1NCc1ccccc1O.Cl,-0.966
16,CCCOC(=O)C(C)n1cnc2sc(C)c(C)c2c1=O (centres unmarked),-3.15
17,COc1ccc(C(=O)c2sc(Nc3cccc(OC)c3)c(C(=O)Nc3cccc(C)c3C)c2N)cc1,4.75
18,COc1ccccc1CNC(=O)C/C(C)=N/NC(=O)Cc1ccc(OC)c(OC)c1,12.2
19,COc1ccc(C(=O)NCCCNC(=O)c2cc3ccccc3[nH]2)cc1OC,-15.8
20,Cc1ccc(S(=O)(=O)N2CCN(S(=O)(=O)N(C)C)CC2)c(C)c1,-0.574
21,CN1CCN(CC(=O)N(Cc2c(C#N)c3ccccc3n2C)c2ccccc2)CC1,-14.7
22,O=C(NCc1cccc(F)c1)C1CCC(=O)N(CCCN2CCOCC2)C1 (centres unmarked),25.7
23,Cc1nc(SCC(=O)O)n[nH]1,-4.54

row,Compound,"hERG current change (%, negative = inhibition) at 10uM [%]"
1,CC(=O)Nc1cccc(NC(=O)CSc2nccn2Cc2ccc(F)cc2)c1,0.742
2,C/C(=N\Nc1ccc(C)c(Cl)c1)c1ccncc1,24.8
3,Cc1ncc(CN2CCC(CO)(CCc3ccccc3)CC2)s1,-60.4
4,Cc1cc(=O)[nH]c2c3ccccc3nn12,13.2
5,Cc1ccc(NC(=O)Nc2ccccc2)cc1[N+](=O)[O-],6.95
6,CCOC(=O)N1CCN(S(=O)(=O)c2ccc(C(=O)N(CCCN(C)C)c3nc4ccc(OC)cc4s3)cc2)CC1.Cl,-73.5
7,CCOC(=O)C(=O)Nc1nnc(SCc2ccc(F)cc2)s1,1.7
8,COc1cccc(NC(=O)c2ccc(S(=O)(=O)N3CCCCC3)cc2)c1,-7.75
9,N#Cc1ccc(-c2csc(NC(=O)C3CC3)n2)cc1,14.5
10,CC(=O)CN1Cc2ccccc2/C1=N\C(=O)Nc1ccccc1,11.7
11,O=C(Cn1cnc2ccccc2c1=O)NCc1ccc2c(c1)OCO2,1.92
12,Cc1ccc(OCCCCN2CCC(C)CC2)c(Br)c1.O=C(O)C(=O)O,-63.1
13,O=C(CSc1nnc(CNC(=O)c2ccc(F)cc2)o1)NCc1ccc2c(c1)OCO2,6.79
14,Cc1noc(C)c1COc1ccc(C(=O)NCc2ccccn2)cc1,19
15,CC(=O)Nc1ccc(S(=O)(=O)N2CCCC2C(=O)O)cc1 (centres unmarked),5.17
16,COc1ccccc1CCNC(=O)C1CCC(=O)N(Cc2ccccc2OC)C1 (centres unmarked),-13.2
17,O=C(CN1C2CCCC1CC(NC(=O)c1ccccc1)C2)Nc1ccccc1 (centres unmarked),-50.7
18,CCCCCNS(=O)(=O)c1cc(C)ccc1OC,1.08
19,COc1ccc([C@H]2CC(=O)C=C(c3cc4ccccc4c4ccccc34)C2)cc1,13.6
20,COc1cccc(NC(=O)CCNS(=O)(=O)c2cccc3nsnc23)c1,1.56
